Hit rate of the full screen: of about 45,000 compounds, about 200 (0.44%) were called active. Not shown: some 7% with an inconclusive outcome. Calls follow the shape of the dose curve; as a rule, active = well fitted activation curve with a large enough effect; inconclusive = small, poorly fitted or top-dose-only effect; inactive = no such curve, though single readings can be large or run the other way. Some of the results follow.

This experiment can be described thus: qHTS of TDP-43 Inhibitors: NCGC Sytravon Library Screen. Also: 0% is about no effect; nearly all actives have a fitted effect of over 55% in size. The conditions noted are these: yeast TDP-43 toxicity rescue, BacTiter-Glo growth, 24 h; series mostly up to 46.1 µM; growth rescue (activation): at the top concentration. A digest of the protocol: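 TDP-43-expressing yeast, pregrown in raffinose, seeded at OD600 0.02 in galactose medium with compound for 24 hr at 30 deg C. Growth read by BacTiter-Glo luminescence, so rescue of toxicity appears as activation.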
In general terms: Quantitative high-throughput screening tests each substance at several concentrations.
For `CCN(CC(=O)NC1CCS(=O)(=O)C1)S(=O)(=O)c1ccc(C)c(C)c1` (stereo unspecified), the “growth rescue (activation)” value was inactive: -33.9%.

For `N#Cc1nc(-c2ccccc2F)oc1NCCc1ccccn1`, the “growth rescue (activation)” value is inactive: 37.7%.

Regarding `O=C(CSc1nc(-c2ccc(F)cc2)nc2ccc(F)cc12)Nc1cccc(C(=O)O)c1`, the “growth rescue (activation)” value was inactive: 22.2%.

Take `COc1ccccc1NC(=O)c1ccc(NC(=O)COC(=O)CC(NC(=O)c2ccccc2Cl)c2ccccc2)cc1` (stereo unspecified): the “growth rescue (activation)” value is inactive: 15.2%.

`Cn1ccnc1SCC(=O)c1c(N)n(C)c(=O)n(C)c1=O`: the “growth rescue (activation)” value is inactive: 4.03%.

For the molecule `Cn1nnnc1SCc1csc(C2C(C#N)=C(N)OC3=C2C(=O)CCC3)c1` (stereo unspecified), the “growth rescue (activation)” value is inactive: 8.3%.

Consider `O=C(N/N=C/c1cn(-c2cccs2)nc1-c1ccccc1)c1ccc(O)cc1`, for which the “growth rescue (activation)” value is inactive: -18.9%.

Turning to `NC(=S)N/N=C/c1cccc(O)c1O`, the “growth rescue (activation)” value is inactive: 16.2%.

On to `CCS(=O)(=O)c1ncc(Cl)c(C(=O)NCc2ccccc2)n1`, for which the “growth rescue (activation)” value was inactive: -4.3%.

For `Cc1[nH]c2ccccc2c1C(=O)CN1CCN(c2ccc(Cl)cc2)CC1`, the “growth rescue (activation)” value was inactive: -1.56%.

`CC(C)c1ccc(NC(=O)c2cc(-c3cc(F)ccc3OCC3CCCO3)n[nH]2)cc1` (stereo unspecified): the “growth rescue (activation)” value was inactive: 21.9%.

Regarding `COc1ccc(CNC(=O)CNS(=O)(=O)c2cccc(C#N)c2)cc1OC`, the “growth rescue (activation)” value is inactive: 4.66%.

Regarding `Cc1c(NC2=CC(=O)CCC2)c(=O)n(-c2ccccc2)n1C`, the “growth rescue (activation)” value was inactive: 2.61%.

As to `CCOc1ccc(OCC)c(NC(=O)CSc2nnc(C3CC3)n2CC)c1`, the “growth rescue (activation)” value is inactive: -34.3%.

As to `O=C(COc1ccc(Cl)cc1)OCC(=O)N1CCCCCC1`, the “growth rescue (activation)” value was inactive: -3.72%.

`O=C1NC(c2ccccc2)=C(c2ccccc2)C1=O`: the “growth rescue (activation)” value is inactive: -1.44%.

In the case of `CCOc1ccccc1Nc1nnc(SC(C)C(=O)Nc2nc(-c3ccccc3)cs2)s1` (stereo unspecified), the “growth rescue (activation)” value was inactive: 11.7%.

As to `Cc1cccn2c(=O)c(/C=C(\C#N)C(=O)NC3CCS(=O)(=O)C3)c(N3CCC(C(N)=O)CC3)nc12` (stereo unspecified), the “growth rescue (activation)” value is inactive: 7.9%.

As to `COc1cc(C(=O)NCC(=O)N/N=C(C)\C=C\c2ccccc2)cc(OC)c1OC`, the “growth rescue (activation)” value is inactive: 2.05%.

Take `Cc1cccc(C(=O)NC2CC3CCCC(C2)N3C(=O)NC2CCCCC2)c1` (stereo unspecified): the “growth rescue (activation)” value was inactive: 7.54%.

`Cc1ccc(C)c(NC(=O)Cc2nc(CNCC(C)C)cs2)c1`: the “growth rescue (activation)” value is inactive: 6.1%.

As to `CCn1cnnc1SCC(=O)Nc1ccccc1C(=O)NC1CC1`, the “growth rescue (activation)” value was inactive: 19.6%.

Consider `Nc1nonc1-n1nnc(C(=O)N/N=C/c2c(Cl)cccc2Cl)c1CN1CCOCC1`, for which the “growth rescue (activation)” value was inactive: -6.02%.

`Brc1ccc(/C=N/Nc2ccccc2)cc1`: the “growth rescue (activation)” value was inactive: -3.35%.

As for `O=C(COc1ccc(Br)cc1Cl)NC(=S)N1CCc2ccccc21`, the “growth rescue (activation)” value was inactive: 6.26%.

Take `O=C1N=c2ccc(Br)cc2=C1c1sc(=S)n(NS(=O)(=O)c2ccccc2)c1O`: the “growth rescue (activation)” value is inactive: 6.88%.

In the case of `C=CCN(C(=O)CSc1nnnn1C)c1nc(-c2ccccc2)cs1`, the “growth rescue (activation)” value was inactive: 17.6%.

Regarding `COc1cccc(/C=N/NC(=O)CCc2c(C)n[nH]c2C)c1`, the “growth rescue (activation)” value was inactive: 3.92%.

`O=C(Cn1ccc2ccccc2c1=O)NCC(=O)N1CCN(c2ccc(F)cc2)CC1`: the “growth rescue (activation)” value was inactive: 10.1%.

In the case of `Cc1ccc(C(=O)Nc2cccc(C(=O)NC3CCCC3)c2)cc1`, the “growth rescue (activation)” value is inactive: 10.4%.

As to `c1ccc(CN2CCN(Cc3cn4cccnc4n3)CC2)cc1`, the “growth rescue (activation)” value was inactive: -9.01%.

For `Cc1nnc(N2C(=O)C(=O)/C(=C(\O)c3ccc4c(c3)CC(C)O4)C2c2ccccc2)s1` (stereo unspecified), the “growth rescue (activation)” value was inactive: -2.34%.

On to `CCc1ccc(OCC(=O)N/N=C(\C)c2ccc(-n3ccnc3)cc2)cc1`, for which the “growth rescue (activation)” value was inactive: 9.28%.

On to `CC1(C)CC(=O)C(C2C3=C(CC(C)(C)CC3=O)Oc3ccccc32)C(=O)C1` (stereo unspecified), for which the “growth rescue (activation)” value was inactive: -0.975%.

Turning to `COc1cc(C(=O)NC2CCCC2)c(Br)c(OC)c1OC`, the “growth rescue (activation)” value was inactive: 8.62%.

Regarding `CCOC(=O)C1CCCN(C2CCN(Cc3nc(-c4ccccc4)no3)CC2)C1` (stereo unspecified), the “growth rescue (activation)” value was inactive: -4.98%.

Take `O=C(Nc1nncs1)c1cc(-c2ccco2)nc2ccccc12`: the “growth rescue (activation)” value was inactive: 3.29%.

Regarding `COCCOC(=O)c1c(NC(=O)CNc2ccc(C)c(F)c2)sc(C(N)=O)c1C`, the “growth rescue (activation)” value is inactive: -10.5%.

For `CC(C)(C)c1cccc(P(=O)(c2ccccc2)c2ccccc2)c1O`, the “growth rescue (activation)” value was inactive: 10.3%.

In the case of `CC(C)Cn1c2c(c(O)c(C(=O)Nc3nc4ccccc4s3)c1=O)CCCC2`, the “growth rescue (activation)” value was inactive: -6.43%.

Take `COc1cccc(CN2CCN(Cc3[nH]c4ccccc4c3C)CC2CCO)c1` (stereo unspecified): the “growth rescue (activation)” value is inactive: 6.63%.

Take `COCCN1C(=O)c2cc(C(=O)Nc3ccc(OC)c(OC)c3)ccc2C1Nc1ccc(OC)c(OC)c1` (stereo unspecified): the “growth rescue (activation)” value is inactive: 1.88%.

As to `Cc1c(NC(=O)CN2C(=O)c3ccccc3C2=O)c(=O)n(-c2ccccc2)n1C`, the “growth rescue (activation)” value is inactive: 7.95%.

For the molecule `Cc1ccc(NC(=O)C2CCN(C(=O)NCc3ccccc3)CC2)cc1C`, the “growth rescue (activation)” value was inactive: 9.25%.

As to `COc1ccc(C(C(=O)NCC2CCCO2)N(C(=O)Cn2nnc3ccccc32)c2ccc(NC(C)=O)cc2)cc1` (stereo unspecified), the “growth rescue (activation)” value was inactive: 10.7%.

For `O=C(CC(c1cccs1)S(=O)(=O)c1ccccc1)c1ccc(F)cc1` (stereo unspecified), the “growth rescue (activation)” value was inactive: 6.14%.

On to `O=C(Nc1ccccc1C(=O)NC(Cc1ccccc1)C(=O)O)c1ccccc1` (stereo unspecified), for which the “growth rescue (activation)” value was inactive: -6.42%.

In the case of `N/N=c1\sc2ccccc2n1-c1ccccc1`, the “growth rescue (activation)” value is inactive: 38.6%.

With `O=C(O)c1ccccc1SC1CC(=O)N(c2cccc3ccccc23)C1=O` (stereo unspecified), the “growth rescue (activation)” value is inactive: -94.7%.

On to `O=C(CSc1nc2ccccc2[nH]1)NCc1ccc(F)cc1`, for which the “growth rescue (activation)” value was inactive: 4.54%.

As to `O=C(Nc1cc(S(=O)(=O)N2CCCC2)ccc1OCC(F)(F)F)c1ccc(F)cc1`, the “growth rescue (activation)” value is inactive: 9.73%.

For the molecule `O=C(c1ccc2c(=O)n(Cc3ccccc3)c(=S)[nH]c2c1)N1CCCC1`, the “growth rescue (activation)” value was inactive: 4.44%.

Consider `C/C(=N/NC(=O)CNC(=O)C(c1ccccc1)c1ccccc1)c1ccco1`, for which the “growth rescue (activation)” value is inactive: 4.04%.

In the case of `CCN(CC(=O)Nc1cccc(C(C)=O)c1)S(=O)(=O)c1ccccc1`, the “growth rescue (activation)” value was inactive: 3.78%.

Regarding `CCOc1ccc2c(c1)[N+](C)(C)C(C)(C)C=C2C`, the “growth rescue (activation)” value is inactive: -6.06%.

Consider `CCC(=O)N1CCN(c2ccccc2NC(=S)NC(=O)c2ccco2)CC1`, for which the “growth rescue (activation)” value was inactive: 16.1%.

`CCOCCc1nnc(NC(=O)C2CC(=O)N(c3ccc(OCC)cc3)C2)s1` (stereo unspecified): the “growth rescue (activation)” value is inactive: 2.43%.

Consider `CC(=O)c1cccc(S(=O)(=O)NC2CCCCCC2)c1`, for which the “growth rescue (activation)” value was inactive: 27.9%.

`Cc1ccc(OCC(=O)c2cc(C)n(C)c2C)c([N+](=O)[O-])n1`: the “growth rescue (activation)” value was inactive: 6.51%.

Consider `COc1ccc(S(N)(=O)=O)cc1C(=O)NCC(C)(C)N1CCOCC1`, for which the “growth rescue (activation)” value is inactive: 0.661%.

For `Cc1ccc(C)c(N2C(=O)c3ccc(C(=O)OCC(=O)c4c(N)n(C)c(=O)n(C)c4=O)cc3C2=O)c1`, the “growth rescue (activation)” value was inactive: -2.58%.

Consider `CCc1nc(SCC(=O)Nc2cc(C)ccc2OC)c2c(C)c(C)sc2n1`, for which the “growth rescue (activation)” value is inactive: 10.4%.

Turning to `CCOc1ccc(NC(=O)C2CC(=O)N(c3cc(C)cc(C)c3)C2)cc1` (stereo unspecified), the “growth rescue (activation)” value is inactive: 13.5%.

For the molecule `CN(CCCNC(=O)CCc1cn(C)c2ccccc12)C1CCCCC1`, the “growth rescue (activation)” value is inactive: 7.79%.

Consider `O=C(CS(=O)CC(=O)NC12CC3CC(CC(C3)C1)C2)Nc1ccc(F)cc1` (stereo unspecified), for which the “growth rescue (activation)” value is inactive: 9.29%.

Consider `CCOC(=O)CC1(NC(=O)C2CCC(=O)N(Cc3ccccc3OC)C2)CCCCC1` (stereo unspecified), for which the “growth rescue (activation)” value was inactive: 15.3%.

These data come from PubChem BioAssay AID1347073 (National Center for Advancing Translational Sciences (NCATS), 2019).
